The list shows a part of the results.
Columns and labels:
Test in all cases: glycan array binding signal (z-score within array); higher = stronger binding
Conditions in all cases: glycan notation: IUPAC condensed, linker removed
[1] = biological target: Neu5Ac(a2-3)Gal(b1-4)GlcNAc(b1-3)Gal(b1-4)[Fuc(a1-3)]GlcNAc
In short: (§1)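 From the Consortium for Functional Glycomics database, 3228 arrays were curated, keeping only those whose protein sequence was available. Binding is given as a within-array Z-score averaged across arrays sharing a protein sequence and across linkers. Negative Z-scores can be read as non-binding.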

[2] = biological target: Neu5Ac(a2-3)Gal(b1-4)GlcNAc(b1-3)GalNAc
In short: as §1

[3] = biological target: Neu5Ac(a2-3)Gal(b1-4)GlcNAc(b1-3)[Neu5Ac(a2-3)Gal(b1-4)GlcNAc(b1-6)]GalNAc
In short: as §1

[4] = biological target: Neu5Ac(a2-3)Gal(b1-4)GlcNAc(b1-6)GalNAc
In short: as §1

[5] = biological target: Neu5Ac(a2-3)Gal(b1-4)GlcNAc(b1-6)[Gal(b1-3)]GalNAc
In short: as §1

[6] = biological target: Neu5Ac(a2-3)Gal(b1-4)GlcNAc(b1-6)[Neu5Ac(a2-3)Gal(b1-3)]GalNAc
In short: as §1

[7] = biological target: Neu5Ac(a2-3)Gal(b1-4)GlcNAc6S
In short: as §1

[8] = biological target: Neu5Ac(a2-3)Gal(b1-4)[Fuc(a1-3)]GlcNAc
In short: as §1

[9] = biological target: Neu5Ac(a2-3)Gal(b1-4)[Fuc(a1-3)]GlcNAc(b1-2)Man
In short: as §1

[10] = biological target: Neu5Ac(a2-3)Gal(b1-4)[Fuc(a1-3)]GlcNAc(b1-3)Gal
In short: as §1

[11] = biological target: Neu5Ac(a2-3)Gal(b1-4)[Fuc(a1-3)]GlcNAc(b1-3)Gal(b1-4)GlcNAc
In short: as §1

[12] = biological target: Neu5Ac(a2-3)Gal(b1-4)[Fuc(a1-3)]GlcNAc(b1-3)Gal(b1-4)[Fuc(a1-3)]GlcNAc(b1-3)Gal(b1-4)[Fuc(a1-3)]GlcNAc
In short: as §1

[13] = biological target: Neu5Ac(a2-3)Gal(b1-4)[Fuc(a1-3)]GlcNAc(b1-3)GalNAc
In short: as §1

[14] = biological target: Neu5Ac(a2-3)Gal(b1-4)[Fuc(a1-3)]GlcNAc(b1-6)[Gal(b1-3)]GalNAc
In short: as §1

[15] = biological target: Neu5Ac(a2-3)Gal(b1-4)[Fuc(a1-3)]GlcNAc(b1-6)[Neu5Ac(a2-3)Gal(b1-3)]GalNAc
In short: as §1

[16] = biological target: Neu5Ac(a2-3)Gal(b1-4)[Fuc(a1-3)]GlcNAc6S
In short: as §1

[17] = biological target: Neu5Ac(a2-3)Gal6S(b1-4)GlcNAc
In short: as §1

[18] = biological target: Neu5Ac(a2-3)Gal6S(b1-4)[Fuc(a1-3)]GlcNAc
In short: as §1

Neu5Ac(a2-3)GalNAc = biological target: Neu5Ac(a2-3)GalNAc
In short: as §1

[19] = biological target: Neu5Ac(a2-3)GalNAc(b1-4)GlcNAc
In short: as §1

[20] = biological target: Neu5Ac(a2-3)[GalNAc(b1-4)]Gal(b1-4)Glc
In short: as §1

[21] = biological target: Neu5Ac(a2-3)[GalNAc(b1-4)]Gal(b1-4)GlcNAc
In short: as §1

[22] = biological target: Neu5Ac(a2-3)[GalNAc(b1-4)]Gal(b1-4)GlcNAc(b1-3)GalNAc
In short: as §1

[23] = biological target: Neu5Ac(a2-3)[Neu5Ac(a2-6)]GalNAc
In short: as §1

Neu5Ac(a2-6)Gal = biological target: Neu5Ac(a2-6)Gal
In short: as §1

[24] = biological target: Neu5Ac(a2-6)Gal(b1-3)GlcNAc(b1-3)[Gal(b1-4)GlcNAc(b1-6)]Gal(b1-4)Glc
In short: as §1

Neu5Ac(a2-6)Gal(b1-4)Glc = biological target: Neu5Ac(a2-6)Gal(b1-4)Glc
In short: as §1

[25] = biological target: Neu5Ac(a2-6)Gal(b1-4)GlcNAc
In short: as §1

[26] = biological target: Neu5Ac(a2-6)Gal(b1-4)GlcNAc(b1-2)Man
In short: as §1

[27] = biological target: Neu5Ac(a2-6)Gal(b1-4)GlcNAc(b1-2)Man(a1-3)Man(b1-4)GlcNAc(b1-4)GlcNAc
In short: as §1

[28] = biological target: Neu5Ac(a2-6)Gal(b1-4)GlcNAc(b1-2)Man(a1-3)[Gal(b1-4)GlcNAc(b1-2)Man(a1-6)]Man(b1-4)GlcNAc(b1-4)GlcNAc
In short: as §1

[29] = biological target: Neu5Ac(a2-6)Gal(b1-4)GlcNAc(b1-2)Man(a1-3)[GlcNAc(b1-2)Man(a1-6)]Man(b1-4)GlcNAc(b1-4)GlcNAc
In short: as §1

[30] = biological target: Neu5Ac(a2-6)Gal(b1-4)GlcNAc(b1-2)Man(a1-3)[GlcNAc(b1-4)][Neu5Ac(a2-6)Gal(b1-4)GlcNAc(b1-2)Man(a1-6)]Man(b1-4)GlcNAc(b1-4)GlcNAc
In short: as §1

[31] = biological target: Neu5Ac(a2-6)Gal(b1-4)GlcNAc(b1-2)Man(a1-3)[Man(a1-6)]Man(b1-4)GlcNAc(b1-4)GlcNAc
In short: as §1

[32] = biological target: Neu5Ac(a2-6)Gal(b1-4)GlcNAc(b1-2)Man(a1-3)[Neu5Ac(a2-3)Gal(b1-4)GlcNAc(b1-2)Man(a1-6)]Man(b1-4)GlcNAc(b1-4)GlcNAc
In short: as §1

[33] = biological target: Neu5Ac(a2-6)Gal(b1-4)GlcNAc(b1-2)Man(a1-3)[Neu5Ac(a2-6)Gal(b1-4)GlcNAc(b1-2)Man(a1-6)]Man(b1-4)GlcNAc(b1-4)GlcNAc
In short: as §1

[34] = biological target: Neu5Ac(a2-6)Gal(b1-4)GlcNAc(b1-2)Man(a1-3)[Neu5Ac(a2-6)Gal(b1-4)GlcNAc(b1-2)Man(a1-6)]Man(b1-4)GlcNAc(b1-4)[Fuc(a1-6)]GlcNAc
In short: as §1

[35] = biological target: Neu5Ac(a2-6)Gal(b1-4)GlcNAc(b1-2)Man(a1-6)Man(b1-4)GlcNAc(b1-4)GlcNAc
In short: as §1

[36] = biological target: Neu5Ac(a2-6)Gal(b1-4)GlcNAc(b1-2)Man(a1-6)[Gal(b1-4)GlcNAc(b1-2)Man(a1-3)]Man(b1-4)GlcNAc(b1-4)GlcNAc
In short: as §1

[37] = biological target: Neu5Ac(a2-6)Gal(b1-4)GlcNAc(b1-2)Man(a1-6)[GlcNAc(b1-2)Man(a1-3)]Man(b1-4)GlcNAc(b1-4)GlcNAc
In short: as §1

[38] = biological target: Neu5Ac(a2-6)Gal(b1-4)GlcNAc(b1-2)Man(a1-6)[Man(a1-3)]Man(b1-4)GlcNAc(b1-4)GlcNAc
In short: as §1

[39] = biological target: Neu5Ac(a2-6)Gal(b1-4)GlcNAc(b1-2)[Neu5Ac(a2-6)Gal(b1-4)GlcNAc(b1-4)]Man(a1-3)[GlcNAc(b1-4)][Neu5Ac(a2-6)Gal(b1-4)GlcNAc(b1-2)[Neu5Ac(a2-6)Gal(b1-4)GlcNAc(b1-6)]Man(a1-6)]Man(b1-4)GlcNAc(b1-4)GlcNAc
In short: as §1

[40] = biological target: Neu5Ac(a2-6)Gal(b1-4)GlcNAc(b1-2)[Neu5Ac(a2-6)Gal(b1-4)GlcNAc(b1-4)]Man(a1-3)[GlcNAc(b1-4)][Neu5Ac(a2-6)Gal(b1-4)GlcNAc(b1-4)Man(a1-6)]Man(b1-4)GlcNAc(b1-4)GlcNAc
In short: as §1

[41] = biological target: Neu5Ac(a2-6)Gal(b1-4)GlcNAc(b1-2)[Neu5Ac(a2-6)Gal(b1-4)GlcNAc(b1-6)]Man(a1-6)[Neu5Ac(a2-6)Gal(b1-4)GlcNAc(b1-2)Man(a1-3)][GlcNAc(b1-4)]Man(b1-4)GlcNAc(b1-4)GlcNAc
In short: as §1

[42] = biological target: Neu5Ac(a2-6)Gal(b1-4)GlcNAc(b1-3)Gal(b1-3)GlcNAc
In short: as §1

[43] = biological target: Neu5Ac(a2-6)Gal(b1-4)GlcNAc(b1-3)Gal(b1-4)GlcNAc
In short: as §1

[44] = biological target: Neu5Ac(a2-6)Gal(b1-4)GlcNAc(b1-3)Gal(b1-4)GlcNAc(b1-2)Man(a1-3)[Neu5Ac(a2-6)Gal(b1-4)GlcNAc(b1-3)Gal(b1-4)GlcNAc(b1-2)Man(a1-6)]GalNAc
In short: as §1

B1: SSR2 (Sclerotium rolfsii) (protein)
chain: MVYKITVRVYQTNPDAFFHPVEKTVWKYANGGTWSITDDQHVLTMGGSGTSGTLRFHADNGESFTATFGVHNYKRWCDIVTNLAADETGMVINQQYYSQKNREEARERQLSNYQVKNAKGRNFQIVYTEAEGNDLHANLIIG
glycan array binding signal (z-score) [1]: -0.291 | glycan array binding signal (z-score) [2]: -0.27 | glycan array binding signal (z-score) [3]: -0.275 | glycan array binding signal (z-score) [4]: -0.275 | glycan array binding signal (z-score) [5]: 1.02 | glycan array binding signal (z-score) [6]: 0.099 | glycan array binding signal (z-score) [7]: -0.293 | glycan array binding signal (z-score) [8]: -0.293 | glycan array binding signal (z-score) [9]: -0.284 | glycan array binding signal (z-score) [10]: -0.284 | glycan array binding signal (z-score) [11]: -0.247 | glycan array binding signal (z-score) [12]: -0.279 | glycan array binding signal (z-score) [13]: -0.25 | glycan array binding signal (z-score) [14]: -0.253 | glycan array binding signal (z-score) [15]: -0.255 | glycan array binding signal (z-score) [16]: -0.293 | glycan array binding signal (z-score) [17]: -0.285 | glycan array binding signal (z-score) [18]: -0.296 | glycan array binding signal (z-score) (Neu5Ac(a2-3)GalNAc): -0.252 | glycan array binding signal (z-score) [19]: -0.279 | glycan array binding signal (z-score) [20]: -0.273 | glycan array binding signal (z-score) [21]: -0.277 | glycan array binding signal (z-score) [22]: -0.249 | glycan array binding signal (z-score) [23]: -0.286 | glycan array binding signal (z-score) (Neu5Ac(a2-6)Gal): -0.287 | glycan array binding signal (z-score) [24]: -0.271 | glycan array binding signal (z-score) (Neu5Ac(a2-6)Gal(b1-4)Glc): -0.289 | glycan array binding signal (z-score) [25]: -0.282 | glycan array binding signal (z-score) [26]: -0.269 | glycan array binding signal (z-score) [27]: -0.286 | glycan array binding signal (z-score) [28]: -0.278 | glycan array binding signal (z-score) [29]: 0.385 | glycan array binding signal (z-score) [30]: -0.287 | glycan array binding signal (z-score) [31]: -0.282 | glycan array binding signal (z-score) [32]: -0.289 | glycan array binding signal (z-score) [33]: -0.302 | glycan array binding signal (z-score) [34]: -0.287 | glycan array binding signal (z-score) [35]: -0.283 | glycan array binding signal (z-score) [36]: -0.282 | glycan array binding signal (z-score) [37]: 1.93 | glycan array binding signal (z-score) [38]: -0.288 | glycan array binding signal (z-score) [39]: -0.284 | glycan array binding signal (z-score) [40]: -0.27 | glycan array binding signal (z-score) [41]: -0.273 | glycan array binding signal (z-score) [42]: -0.286 | glycan array binding signal (z-score) [43]: -0.288 | glycan array binding signal (z-score) [44]: -0.289
